# Measurements reported in the RNAGym collection of RNA variant scans (doi:10.1101/gad.245936.114).
# Variants at the floor of the assay are shown more often than the library holds them.
# B1: tRNA (parent)
# chain: CUCUCGGUAGCCAAGUUGGUUUAAGGCGCAAGACUUUAAUUUAUCACUACGAAAUCUUGAGAUCGGGCGUUCGACUCGCCCCCGGGAGAUUUUUUCCUCGAGCAA
# Variants of: B1
# Assay: nonsense suppression (GFP-seq) (ratio to wild type); higher = more function; SUP4oc tRNA, yeast GFP reporter sort-seq
# In short: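 Yeast carrying genome-integrated SUP4oc tRNA variants from a library with ~3% random mutations were grown in raffinose/galactose medium with 80 mg/L adenine. Each strain also carried a galactose-driven GFP ochre reporter and RFP. Cells were sorted into GFP/RFP bins, and each bin was Illumina-sequenced (phred ≥30). Nonsense suppression (GFPSEQ) is the bin median GFP/RFP, weighted by each variant's estimated cell share per bin, relative to wild-type SUP4oc; variants needed ≥100 reads and ≥30 cells.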
row,Variant,nonsense suppression
1,CUCUCGGUAGCCAAGAUGGUUUAAGGCGCAAGACUUUAAUUUAUCACUACGAAAUCUUGAGAUCGGGGGUUCGACUCGCCGCCGGGAGAUUUUUUCCUCGAGCAA [U16A C68G C81G],≤ 0.026
2,CUCUCGGUAGCCAAGAUGGUUUAAGGCGCAAGACUUUAAUUUAUCACUACGAAAUCUUGAGAUCGGGCGUUCGAUUGGCCUCCGGGAGAUUUUUUCCUCGAGCAA [U16A C75U C77G C81U],≤ 0.026
3,CUCUCGGUAGCCAAGAUGGUUUAAGGCGCAAGACUUUAAUUUAUCACUACGAAAUCUUGAGAUCGGGCGUUCGACUCGCCCGCGGGAGAUUUUUUCCUCGAGCAA [U16A C82G],≤ 0.026
4,CUCUCGGUAGCCAAGAUGGUUUAAGGCGCAAGACUUUAAUUUAUCACUACGAAAUCUUGAGAUCGGGCGUUCGACUCGCCCUCGGGAGAUUUUUUCCUCGAGCAA [U16A C82U],0.886
5,CUCUCGGUAGCCAAGAUUGUUUACGGCGCAAGACUUUAAUUUAUCACUACGAAAUCUGGAGAUCGGGCGUUCGACUCGCCCCCGGGAGAUUUUUUCCUCGAGCAA [U16A G18U A24C U58G],≤ 0.026
6,CUCUCGGUAGCCAAGAUGCCUUAAGGCUCAAGACUUUAAUUUAUCACUACGAAAGCUUGAGAUCGGGCGUUCGACUCGCCCCCGGGAGAUUUUUUCCUCGAGCAA [U16A G19C U20C G28U U55G],≤ 0.026
7,CUCUCGGUAGCCAAGAUGCUUUAAGGCGCAAGACUUUAAUUUAUCACUACGAAAUCUUGAGAUCGGGCGGUGGACUCGCCCCCGGGAGAUUUUUUCCUCGAGCAA [U16A G19C U70G C72G],≤ 0.026
8,CUCUCGGUAGCCAAGAUGUUGUAAGGCGCAAGACUUUAAUUUAUCACUACGAAAUCUUGUGAUCGGGCGUUCGACUCGCCCCCGGGAGAUUUUUUCCUCGAGCAA [U16A G19U U21G A60U],≤ 0.026
9,CUCUCGGUAGCCAAGAUGGUUUAAUGCGCAAGCCUUUAAUUUAUCACUACGAAAUCUUGAGAUCGGGCGUUCGACUCGCCCCCGGGAGAUUUUUUCCUCGAGCAA [U16A G25U A33C],≤ 0.026
10,CUCUCGGUAGCCAAGAUGGUUUAAGACGCAAGACUUUAAUUUAUCACUACGAAAUCUUGAGAUCGGGCGUUCGACUCGCCCCCGGGAGAUUUUUUCCUCGAGCAA [U16A G26A],≤ 0.026
11,CUCUCGGUAGCCAAGAUGGUUUAAGCCGCAAGACUUUAAUUUAUCACUACGAAAUCUUGAGAUCGGGCGUUUGACUCGCCCCCGGGAUAUUUUUUCCUCGAGCAA [U16A G26C C72U G88U],≤ 0.026
12,CUCUCGGUAGCCAAGAUGGUUUAAGUCGCAAGACUUUAAUUUAUCACUACGAAAUCUUGAGAUCGGGCGUUCGACUCGCCUCCGGGAGAUUUUUUCCUCGAGCAA [U16A G26U C81U],≤ 0.026
13,CUCUCGGUAGCCAAGAUGGUUUAAGUCGCAAGACUUUAAUUUAUCACUACGAAAUCUUGAGAUCGGGCGUUCGACUCGCCCCCGGAAGAUUUUUUCCUCGAGCAA [U16A G26U G86A],≤ 0.026
14,CUCUCGGUAGCCAAGAUGGUUUAAGGCCCUAGACUUUAAUUUAUCACUACGAAAUCUUGAGAUCGGGCGUUCGGCUCGCCCCCGGGAGAUUUUUUCCUCGAGCAA [U16A G28C A30U A74G],≤ 0.026
15,CUCUCGGUAGCCAAGAUGGUUUAAGGCUCAAGACUUUAAUUUAUCACUACGAAAUCUUGAGAUCGGCCGUUCGACUCGCCCCCGUGAGAUUUUUUCCUCGAGCAA [U16A G28U G67C G85U],≤ 0.026
16,CUCUCGGUAGCCAAGAUGGUUUAAGGCGCAAAACUUUAAUUUAUCACUACGAAAUCUUGAGAUGGGGCGUUCGACUCGCCCCCGGGAGAUUUUUUCCUCGAGCAA [U16A G32A C64G],≤ 0.026
17,CUCUCGGUAGCCAAGAUGGUUUAAGGCGCAAAACUUUAAUUUAUCACUACGAAAUCUUGAGAUCGGGCAUUCGACUCGCCCCCGGGAGAUUUUUUCCUCGAGCAA [U16A G32A G69A],≤ 0.026
18,CUCUCGGUAGCCAAGAUGGUUUAAGGCGCAAUACUUUAAUUUAUCACUACGAAAUCUUGAGAUCGGGCGUUCAACUCGCCCCCGGGAGAUUUUUUCCUCGAGCAA [U16A G32U G73A],≤ 0.026
19,CUCUCGGUAGCCAAGAUGGUUUAAGGCGCAAGACUUUAAUUUAUCACUACGAAAUCUUGAAAUUGGGCGUUCGACUCCCCCCCGGGAGAUUUUUUCCUCGAGCAA [U16A G61A C64U G78C],≤ 0.026
20,CUCUCGGUAGCCAAGAUGGUUUAAGGCGCAAGACUUUAAUUUAUCACUACGAAAUCUUGAGAUCAAGCGUUCGACUCGCCCCCGGGAGAUUUUUUCCUCGAGCAA [U16A G65A G66A],≤ 0.026
21,CUCUCGGUAGCCAAGAUGGUUUAAGGCGCAAGACUUUAAUUUAUCACUACGAAAUCUUGAGAUCGUGCGUUCGACUCGCCCCAGGGAGAUUUUUUCCUCGAGCAA [U16A G66U C83A],≤ 0.026
22,CUCUCGGUAGCCAAGAUGGUUUAAGGCGCAAGACUUUAAUUUAUCACUACGAAAUCUUGAGAUCGGGCAUUCGACUCGCCCCCGGGAGAUUUUUUCCUCGAGCAA [U16A G69A],≤ 0.026
23,CUCUCGGUAGCCAAGAUGGUUUAAGGCGCAAGACUUUAAUUUAUCACUACGAAAUCUUGAGAUCGGGCCUUCGACUCGCCCCCGGGAGAUUUUUUCCUCGAGCAA [U16A G69C],≤ 0.026
24,CUCUCGGUAGCCAAGAUGGUUUAAGGCGCAAGACUUUAAUUUAUCACUACGAAAUCUUGAGAUCGGGCGUUCGACUCGCCCCCCGGAGAUUUUUUCCUCGAGCAA [U16A G84C],≤ 0.026
25,CUCUCGGUAGCCAAGAUGGUUUAAGGCGCAAGACUUUAAUUUAUCACUACGAAAUCUUGAGAUCGGGCGUUCGACUCGCCCCCGGGACAUUUUUUCCUCGAGCAA [U16A G88C],≤ 0.026
26,CUCUCGGUAGCCAAGACGGUUUAAGGCGCUAGACUUUAAUUUAUCACUACGAAAUCUUGAGAUCGGCCGUUCGACUCGCCCCCGGGGGAUUUUUUCCUCGAGCAA [U16A U17C A30U G67C A87G],≤ 0.026
27,CUCUCGGUAGCCAAGAUGGUGUAAGGCGCAAGACUUUAAUUUAUCACUACGAAAUCUUGAGAUCGGGCGUUCGACUCGCCCCCGGGAGAUUUUUUCCUCGAGCAA [U16A U21G],0.752
